About 60 (0.1%) of roughly 46,000 compounds were called active. Not shown: some 3% with an inconclusive outcome. The call rests on the fitted dose curve; in most records, active means well fitted inhibition curve with a large enough effect; inconclusive means small, poorly fitted or top-dose-only effect; inactive means no such curve, though single readings can be large or run the other way. The list shows a part of the results.
Experiment: Primary qHTS assay for Inhibitors of ovarian cancer metastasis using an organotypic tumor microenvironment (TME) model. Further: nearly all actives have a fitted effect of over 65% in size.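 On activity change, negative = inhibition: plate controls were DMSO wells for no effect and tomatine positive control wells for full effect.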
Conditions: SKOV3ip1-GFP adhesion/invasion on 3D omental model, fluorescence; series mostly up to 45.8 µM; activity change, negative = inhibition: at the top concentration
Procedure, shortened: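 A 3D layer of primary human omental fibroblasts, mesothelial cells, fibronectin and collagen I, grown 48 hr, received SKOV3ip1-GFP cells in serum-free medium plus compounds at 0.36-46 umol/L. After 2 hr RT and 16 hr 37 C, fixed adherent GFP cells were counted; normalized to DMSO and tomatine.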

outcome, inactive:
CN(C)c1ccc(CNC(=O)c2cnc3sc(N4CCCC4)nn3c2=O)cc1
CC(=O)c1cccc(NC(=O)CSc2nnc3ccc(-c4ccc(F)cc4)nn23)c1
O=C(Cc1ccccc1)N(Cc1cccnc1)c1nc2ccc(Cl)cc2s1
CCOC(=O)c1ccccc1NC(=O)Cn1c(=O)n(CCC(=O)NCc2ccccc2OC)c(=O)c2ccccc21
Cc1sc2ncn(CC(=O)Nc3ccc(F)cc3Cl)c(=O)c2c1S(=O)(=O)N1CCN(c2ncccn2)CC1
CCOC(=O)c1c(C)oc2ncnc(N3CCN(c4ccc(C)cc4C)CC3)c12
CCCCN(Cc1cccs1)S(=O)(=O)c1cc(-c2cc(C)no2)ccc1C
COc1ccc(-c2nc3scc(CCNS(=O)(=O)c4c(C)noc4C)n3n2)cc1OC
O=C(Nc1ccc(Cl)c(C(F)(F)F)c1)C1CCCN(S(=O)(=O)c2cccc3cccnc23)C1 (stereo not drawn)
O=c1c(N2CCN(c3cccc(C(F)(F)F)c3)CC2)csc2ccccc12
COc1ccccc1NC(=O)Cn1cnc2c(nc3n2CCCCC3)c1=O
Cc1ccc(CNC(=O)C2CCN(C(=O)c3ccc(-n4ccc5ccccc54)s3)CC2)cc1
COc1ccc(-c2cn3c(n2)sc2cc(C(=O)NCc4cccs4)ccc23)cc1
CCn1cc(C(=O)NCCc2ccc(Cl)cc2)c(=O)c2cc(S(=O)(=O)N3CCc4ccccc4C3)ccc21
Cc1ccc(N(Cc2cccs2)C(=O)c2ccccc2)cc1
CCOC(=O)c1cc(-c2ccccc2)n(CCC(=O)Nc2ccc(C(F)(F)F)cc2)c1C
CN(c1ncnc2c1c(-c1ccccc1)cn2-c1ccc(F)cc1)C1CCCCC1
CCC(=O)N1CCc2cc(S(=O)(=O)CCC(=O)N3CCN(c4ccccc4Cl)CC3)ccc21
Cc1ccc2cc3cc(C(=O)N4CCN(c5cccc(C(F)(F)F)c5)CC4)sc3nc2c1
Clc1ccccc1Cn1cccc1C1=NC(Cc2ccccc2)CO1 (stereo not drawn)
CC(=O)c1ccc(NS(=O)(=O)c2ccc3[nH]c4c(c3c2)CCCCCC4)cc1
Cc1ccc(NC(=O)CN2C(=O)CCc3cc(S(=O)(=O)N4CCOCC4)ccc32)c(C)c1
Cc1ccc(Cn2c(=O)n(Cc3ccc(Cl)cc3)c(=O)c3cccnc32)cc1
COc1ccc(CCNC(=O)Cn2c(=O)c3cccn3c3ccc(F)cc32)cc1OC
Cc1ccccc1-n1nc(CO)c(C(=O)NCCc2ccccc2)n1
COc1ccc(OC)c(CNc2ncnc3onc(-c4ccc(Cl)cc4)c23)c1
CCN(CC)c1ccc(NC(=O)c2cnn3c(C(F)F)cc(-c4ccccc4)nc23)cc1
COc1ccc(OC)c(C2CC(=O)N(c3cccc(C)c3)C3=C2C(=O)OC3)c1 (stereo not drawn)
O=C(COc1ccccc1)Nc1ccc(OCc2cc(=O)n3ccsc3n2)cc1

Activity change, negative = inhibition, inactive:
COCCCNC(=O)c1[nH]c2ccccc2c1Sc1ccc(C)cc1 15.7%
COc1ccc(NC(=O)c2ccc3c(SCC(=O)O)c4c(nc3c2)CCCC4)cc1OC -14.8%
CCCOc1ccc(C(=O)Nc2ccc3oc(-c4ccc5ccccc5c4)nc3c2)cc1 1.91%
Cn1c(=O)c2c(nc(Oc3ccc(C#N)cc3)n2Cc2ccc(Cl)cc2Cl)n(C)c1=O -1.23%
O=C(Nc1ccc(Br)cc1F)c1cc(S(=O)(=O)NC2CCCC2)ccc1F 8.54%
CCOC(=O)c1cccc(-n2nnc3c(sc4nc(C)c(Br)c(C)c43)c2=O)c1 -37.9%
O=C(NCCc1ccccc1)c1cc(-c2ccc(Br)cc2)on1 7.8%
CCN1CCN(c2csc3ccc(F)cc3c2=O)CC1 2.04%
CCOC(=O)c1c(S(=O)(=O)NCC(=O)N2CCN(c3cccc(Cl)c3)CC2)c(C)n(C)c1C 6.85%
COc1cccc(CNC(=O)c2[nH]c3cc(C)ccc3c2Sc2ccccc2)c1 0.487%
Cc1cccn2c(=O)cc(CSc3nnc(NC(=O)COc4ccc(F)cc4)s3)nc12 -8.07%
O=C1CCc2cc(S(=O)(=O)NCc3ccc(Cl)cc3)cc3c2N1CC3 22.1%
COc1cccc(-c2nnc(-c3cc4cc(Cl)ccc4oc3=O)o2)c1 14.8%
Cc1cccc(NC(=O)CSc2nnc3scc(-c4ccccc4)n23)c1 2.71%
COc1ccccc1NC(=O)c1oc2ccccc2c1NC(=O)C(C)C 7.77%
CC(C)(C)c1ccc(CSc2nc3c(c(=O)[nH]2)CCCC3)cc1 -3.18%
Cc1ccccc1CNC(=O)c1ccccc1NC(=O)c1nsc2ccccc12 -14.6%
CC1CCN(S(=O)(=O)c2ccc3c(c2)c(=O)c(C(=O)NCc2ccc(Cl)cc2)cn3C)CC1 -4.85%
CCC1CCC(C(=O)NC(C(=O)NCCN(CC(C)C)CC(C)C)C(C)C)CC1 (stereo not drawn) 4.87%
COc1cc(-c2noc(CSc3nc(-c4ccc(F)cc4)cc(=O)[nH]3)n2)cc(OC)c1OC 12.6%
CCOC(=O)CC(NC(=O)CCc1c(C)nc2c(-c3ccccc3)c(C)nn2c1C)c1ccc(C)cc1 (stereo not drawn) 32.9%
COc1ccc(-c2c3c(=O)n(C)c(=O)n(C)c3cn2-c2cccc(N)c2)cc1 -5.21%
COc1cccc(CN2C(=O)N(c3ccc(C)cc3)C(=O)C2CC(=O)Nc2cc(OC)cc(OC)c2)c1 (stereo not drawn) 6.16%
CCOc1ccc(Nc2c(S(=O)(=O)c3ccc(Cl)cc3)cnc3ccc(OC)cc23)cc1 10.7%
Cc1ccc(-n2nnc(-c3nsc(NC(=O)c4ccccc4C)n3)c2C)cc1Cl 0.319%
O=C(Nc1ccc(F)cc1)N1CCN(c2ccc3nnc(-c4ccc(F)cc4)n3n2)CC1 12.7%
COCCCNC(=O)c1[nH]c2cc(OC)ccc2c1Sc1ccc(C)cc1 0.485%
COc1ccc(Cn2ccc3nc(C)c(C(=O)Nc4ccc(F)cc4)cc3c2=O)cc1 3.84%
Cc1nn(-c2ccccc2)c2c1N(CC(=O)NCc1ccc(N(C)C)cc1)C(=O)CS2 7.38%
Cc1cccc(NC(=O)c2cc3c(=O)n(Cc4ccco4)ccc3nc2C)c1 -0.8%
O=C(Nc1nnc(SCc2cc(=O)c3ccccc3[nH]2)s1)c1ccccc1 -4.2%
Fc1ccc(-c2nc(-c3cccs3)c(-c3cccs3)[nH]2)cc1 0.147%
Cc1cccc(NC(=O)CSc2nc3ccc(NC(=O)COc4ccc(Cl)cc4)cc3s2)c1 -15.2%
Cc1c(NC(=O)Cc2ccc(F)cc2)cccc1-c1nc2cccnc2s1 -17.6%
O=C(NCCn1cc(SCc2cccc(F)c2)c2ccccc21)c1cccc(C(F)(F)F)c1 0.613%
O=C(NCCOCCO)C(=O)Nc1c2c(nn1-c1ccc(F)cc1)CSC2 9.27%
Cn1c(SCC(N)=O)nc2c([nH]c3ccccc32)c1=O 6.83%
O=C(O)c1ccc(Nc2nc(-c3ccccc3)c3cc(Br)ccc3n2)cc1 -8.95%
COc1ccc(-c2nc3ccc(NS(C)(=O)=O)cc3o2)cc1 -3.92%
Cc1ccc(CNC(=O)c2cc3sccc3n2Cc2ccc(F)cc2)cc1 36.3%
CCC(=O)N1CCc2cc(S(=O)(=O)CCC(=O)N3CCN(c4ccccc4F)CC3)ccc21 8.73%
Cc1ccc(C)c(Cn2nnc(C(=O)NCc3ccccc3)c2N)c1 -1.39%
CN1CCN(CCCN2c3ccccc3Sc3ccc(Cl)cc32)CC1 15.9%
CCN(c1ccccc1)c1cc(NC)[n+](C)c(C)n1 -15.5%
CCC(CC)C(=O)N1CCc2cc(OC)c(OC)cc2C1COc1ccccc1OC (stereo not drawn) -2.75%
CCOc1ccc(CNC(=O)c2sc3nc(C)cc(C)c3c2-n2cccc2)cc1 -4.15%
Cc1cc2oc(C(=O)Nc3nc(-c4ccccc4)ns3)c(C)c2cc1Cl -13.6%
CN1CCN(C(CNC(=O)C(=O)Nc2ccc(F)cc2)c2cccnc2)CC1 (stereo not drawn) -4.88%
O=C(c1ccc2c(c1)N(Cc1cccc(Cl)c1)C(=O)c1ccccc1S2(=O)=O)N1CCN(c2cccc(C(F)(F)F)c2)CC1 0.621%
COc1ccc(-c2nn(C)c3sc(C(=O)N4CCN(c5cc(Cl)ccc5C)CC4)cc23)cc1OC 7.04%
CCOc1ccc(-c2nonc2NC(=O)COc2ccc(C)c(C)c2)cc1OCC 3.14%
Cc1nc2cc(-c3cccc(F)c3)nn2c(C)c1CCC(=O)NC1CCCCC1 10.9%
CCOc1ccc(NC(=O)CSc2nnc(NC(=O)Nc3ccccc3)s2)cc1 2.01%
COc1ccc(C(=O)CCC(=O)Nc2cccc(C(C)=O)c2)cc1 5.97%
CCOc1ccc(-c2cnc(NCc3cccc(Cl)c3)n2C)cc1 -0.707%
COc1cccc(NC(=O)C(=O)NCC(c2cccnc2)N2CCN(c3ccccc3)CC2)c1 (stereo not drawn) -1.61%
Cc1cccc(CSc2cn(CC(=O)N3CCCCCC3)c3ccccc23)c1 -15.8%
CCOC(=O)CSc1nc2ccc(NC(=O)COc3ccccc3)cc2s1 29.5%
CC1CCc2c(sc(NC(=O)c3ccccc3)c2C(=O)Nc2ccccc2)C1 (stereo not drawn) 7.9%
O=C(NCc1ccc(Cl)cc1)c1cnc2sc(N3CCCCCC3)nn2c1=O 0.613%
CCCOc1ccc(-c2cccc(NS(=O)(=O)c3cc(OC)ccc3OC)c2)nn1 0.694%
O=C(CCC(=O)N1Cc2ccccc2Oc2ncccc21)NCc1ccccc1Cl 2.95%
COc1ccc(Cl)cc1NC(=O)C1CCN(c2ncnc3c2nc2n3CCCCC2)CC1 2.6%
Nc1nc(=S)c2[nH]cnc2[nH]1 -28.2%
CCOc1ccc(C(=O)Nc2ccc(S(=O)(=O)N(Cc3ccccc3)c3ccccc3)cc2)cc1 1.12%
COCCNC(=O)CSc1nc(-c2ccc(F)cc2)[nH]c1-c1ccc(Cl)cc1 -5.79%
COc1ccc(OC)c(NC(=O)C2CCN(S(=O)(=O)c3ccc(C)cc3)CC2)c1 17.7%
Cc1cc(N2CCCCC2)nc2ccc(NC(=O)c3ccc(F)cc3)cc12 -9.34%
Cc1cccc(CC(=O)NC2CC(=O)N(c3cccc(F)c3)C2)c1 (stereo not drawn) -0.638%

Source: PubChem BioAssay AID1963576 (National Center for Advancing Translational Sciences (NCATS), 2024)
